Measurements: ChEMBL document CHEMBL1201862, “PubChem BioAssay data set” (2004)
Calls of active or inactive are those of the source. No rule for the calls is given here.

Tested on: Vero
Test: cells
Type: functional
Details: Chlorocebus sabaeus

Structure (SMILES): CNC1CCc2cc(OC)c(OC)c(OC)c2-c2ccc(SC)c(=O)cc21 (stereo unspecified)
- CC50: active: < 50 nM
